Read counts are not given, so values of variants with three or more changes are uncertain.

To fix the notation:
B1: LINE1-mini (parent)
chain: GGCAGAGCUCAACACAGCGUGGCAAAGUGGCUGUGGCUAGACUGCC

In this data set the parent is B1. Put plainly: self-cleavage, relative activity (ratio to wild type); higher = more cleavage; in vitro, sequencing; the parent is a self-cleaving ribozyme.
Consider A11U G30U C46U, for which the self-cleavage came to 0.09.

In the case of A11C G21U G27A G33U, the self-cleavage came out at 0.02.

Consider A11U C15G G27U G29A, for which the self-cleavage is 0.01.

Turning to A11U G33A G44C C45G, the self-cleavage was 0.02.

As for A11U C18G A25C C31U A39C G40C, the self-cleavage came to 0.

A11U G22C U38A: the self-cleavage amounted to 0.03.

Take A11G A25U U34C C37A C42U: the self-cleavage is 0.02.

In the case of A11U G19A U20C, the self-cleavage turned out to be 0.03.

For the variant A11G C13A U43C, the self-cleavage was 0.04.

As to A11U U28G G29A, the self-cleavage was 0.04.

Consider A11G C23G G29A C46A, for which the self-cleavage stood at 0.04.

On to A11C C15U G19U G22U, for which the self-cleavage was 0.03.

On to A11G A14U G35C U43A, for which the self-cleavage was 0.

In the case of A11C C13G C42U, the self-cleavage worked out at 0.04.

As for A11U A24C G33A, the self-cleavage turned out to be 0.03.

For the variant A11C A14U G30U, the self-cleavage amounted to 0.04.

For the variant A11U C31U G40U, the self-cleavage worked out at 0.03.

Consider A11U A14U G33U C46U, for which the self-cleavage worked out at 0.

Take A11C A14G C31U: the self-cleavage stood at 0.05.

On to A11C A12U A24C C46U, for which the self-cleavage stood at 0.03.

As for A11C C31U U34C, the self-cleavage worked out at 0.01.

Consider A11U G19A A26C G33U, for which the self-cleavage was found to be 0.

Take A11U C13A G22C A26U G36U: the self-cleavage was found to be 0.

For A11C A16C U28C G40A, the self-cleavage stood at 0.01.

Take A11U C13A G27C A41U: the self-cleavage was determined as 0.03.

For the variant A11G A16C G27U C31A C37A, the self-cleavage stood at 0.02.

On to A11U A14U C23U G29C G36C, for which the self-cleavage amounted to 0.01.

For A11U U28C C42U, the self-cleavage amounted to 0.1.

Regarding A12C A24G U28A G36U, the self-cleavage was 0.

In the case of A11C U32G U38A, the self-cleavage was 0.

With A11C A12C G40U G44A, the self-cleavage came to 0.01.

Consider A11U G21U U34A, for which the self-cleavage was determined as 0.07.

Consider A11G C15A G21A A24G, for which the self-cleavage is 0.02.

Turning to A12C A14G C23U, the self-cleavage was 0.01.

With A11U G22A U28A C42G, the self-cleavage came out at 0.

Turning to A11U G29U G40C, the self-cleavage came to 0.02.

Regarding A11U G35U C42A, the self-cleavage was 0.02.

Take A11U C18U C23G: the self-cleavage was found to be 0.05.

As for A11U A26U G36A, the self-cleavage worked out at 0.01.

Take A11C C18G C31U G35C: the self-cleavage is 0.01.

A11G C15U U43C: the self-cleavage is 0.01.

As to A11C U32C U34G G35U C37U, the self-cleavage was 0.02.

On to A11G C31U C45G, for which the self-cleavage is 0.04.

A11G G19A G33U: the self-cleavage stood at 0.04.

Turning to A11G G21C C23A, the self-cleavage is 0.02.

As for A11G A12U G21U, the self-cleavage was 0.02.

Turning to A11G G27U G29U G40U, the self-cleavage came to 0.01.

In the case of A11G C18U A26C U43C, the self-cleavage stood at 0.03.

Consider A11C C15A G29A, for which the self-cleavage was 0.01.

In the case of A11C A16G A25U U38A C45A, the self-cleavage came to 0.

Turning to A11G G17U G40C C45G, the self-cleavage is 0.01.

On to A11C A16C G22C, for which the self-cleavage was determined as 0.01.

Take A11G C23U U34C U38G C46G: the self-cleavage stood at 0.

With A11G A16G A24G C31A, the self-cleavage stood at 0.02.

For the variant A11C C37U C46U, the self-cleavage amounted to 0.

On to A11U C13G A14C A25C C31G, for which the self-cleavage came out at 0.

Consider A11G A39U G44A, for which the self-cleavage was determined as 0.04.

In the case of A11U C15A G40C, the self-cleavage was 0.01.

Turning to A11G A26G U32A, the self-cleavage came out at 0.03.

Take A11G U20C C45A: the self-cleavage turned out to be 0.07.

A12C A26G U43A: the self-cleavage came out at 0.01.

For A11C A12C G17U G33U, the self-cleavage turned out to be 0.05.

Take A11U G40U C45U: the self-cleavage stood at 0.02.

In the case of A11U G40U C45A, the self-cleavage was 0.01.

For A11C U20A G44U, the self-cleavage was determined as 0.01.

In the case of A11G A41U U43A, the self-cleavage was determined as 0.01.

In the case of A11C C15G G19A, the self-cleavage came out at 0.02.

In the case of A11G G21A G29C, the self-cleavage was determined as 0.02.

Turning to A11C C18U C23U, the self-cleavage was 0.02.

For A11G C23U G36U C45G, the self-cleavage is 0.02.

With A11C C15A U20G, the self-cleavage amounted to 0.02.

As for A11U G36A C45U, the self-cleavage is 0.02.

As to A11U C23G U32A, the self-cleavage was found to be 0.01.

Turning to A11C C13U G27U, the self-cleavage was 0.04.

As for A11C C42U C46U, the self-cleavage turned out to be 0.01.

For A11U G36C G40U, the self-cleavage was 0.02.

As for A12C A16U U34A, the self-cleavage worked out at 0.01.

For the variant A11U A14G G30U G44C, the self-cleavage is 0.01.

Turning to A11G C31U G36C, the self-cleavage worked out at 0.04.

As to A11G G36A G40U C45G, the self-cleavage stood at 0.

A11C A12C C13U G30A: the self-cleavage is 0.02.

Turning to A11C A39C C45U C46U, the self-cleavage came out at 0.01.

For the variant A11G C15U C18A, the self-cleavage was 0.

For A11U C15G A16U G19A C31A G36A, the self-cleavage is 0.02.

On to A11C G19C G27A, for which the self-cleavage amounted to 0.04.

As to A11U A39U C42U, the self-cleavage came to 0.03.

For the variant A11G A25G G30U, the self-cleavage amounted to 0.01.

For the variant A11G A12C C15U A25U U32C G40A C45U, the self-cleavage came to 0.

For A12C A26G U32C C46G, the self-cleavage worked out at 0.05.

In the case of A11U C15A G36A, the self-cleavage amounted to 0.03.

A11C A12C G19A G27U C42G G44A: the self-cleavage is 0.01.

For the variant A11G A16C C23U U34G C37G A39C G40U, the self-cleavage was 0.01.

In the case of A11C C37A G40C, the self-cleavage came to 0.04.

A11C C23U G40U U43A: the self-cleavage was 0.

For A11U G27C U32C, the self-cleavage came to 0.02.

As for A11U G27C U32A, the self-cleavage is 0.

Turning to A11G A12C C13U G17A G44A, the self-cleavage worked out at 0.

As for A11U A39C U43A, the self-cleavage was found to be 0.02.

On to A11U C13G C37A, for which the self-cleavage stood at 0.03.

For A11C G21U G29C U32A G36A, the self-cleavage turned out to be 0.03.

Consider A11G G17A U28C C37G U43C, for which the self-cleavage was 0.

Take A12C A26U G33C A41C: the self-cleavage is 0.02.

For A11C G19U U38G, the self-cleavage is 0.03.

For A11C G33A A41U, the self-cleavage was 0.02.

In the case of A11U A24G G40C, the self-cleavage is 0.04.

A12C A14U A16C: the self-cleavage turned out to be 0.03.

As for A11G G17U U34G G36U, the self-cleavage came to 0.02.

For the variant A11U C18A C31U G33A C45A, the self-cleavage was determined as 0.

Turning to A12C A16C G29U, the self-cleavage was 0.02.

In the case of A11U A26G G35U G36U A41G, the self-cleavage amounted to 0.

On to A12C A16G C31G G40U C42U, for which the self-cleavage was determined as 0.01.

For the variant A11G G19C G22U A26G C31A, the self-cleavage was determined as 0.02.

As to A11U A16U C42U, the self-cleavage turned out to be 0.04.

Regarding A11G C45U C46U, the self-cleavage came to 0.03.

As to A11U A14U U32A G36U A39C, the self-cleavage was found to be 0.02.

In the case of A11U A14U A39C U43A C46U, the self-cleavage came out at 0.02.

As for A11C C15U C31U A39G C45G, the self-cleavage came to 0.01.

With A11U U28A G30C G40U, the self-cleavage was found to be 0.02.

For the variant A11C A25G C37A, the self-cleavage amounted to 0.02.

Turning to A11G U28A C42A, the self-cleavage came out at 0.

Turning to A11G A14C C15G C18G G29U G36A U43A, the self-cleavage was 0.

Regarding A11U G17A U43G, the self-cleavage is 0.03.

Turning to A11C G36U G44A, the self-cleavage stood at 0.02.

For A11U C37G U38C C45A, the self-cleavage is 0.02.

As for A11U G35U G36U G44U, the self-cleavage came to 0.01.

Take A11C G36A C37U: the self-cleavage amounted to 0.03.

As for A11U C15U C23U G30C G40U, the self-cleavage was 0.01.

Take A11C G19C G22A G30U: the self-cleavage was determined as 0.06.

Take A11C G30C C45U: the self-cleavage came out at 0.02.

Turning to A11G U20G G27C A41G, the self-cleavage was found to be 0.01.

As for A11G A12G G30U, the self-cleavage is 0.02.

Take A11G A12G G17A G33U: the self-cleavage was 0.

With A11C U28A G30A, the self-cleavage came out at 0.02.

For A11U G33U G40C G44A, the self-cleavage was determined as 0.01.

In the case of A12C A24G U32G G36U, the self-cleavage stood at 0.01.

In the case of A11C A14C C18A, the self-cleavage was 0.02.

A11C U20A G35C: the self-cleavage is 0.02.

Consider A12C A14U C18A G21U U32G, for which the self-cleavage was determined as 0.

Turning to A11U A24G U32A, the self-cleavage stood at 0.

As to A11G G27U G35U A41U C46U, the self-cleavage was determined as 0.01.

For A11G U32A U43A, the self-cleavage came to 0.03.

With A11U A12C G40C, the self-cleavage was 0.

A11G G27C G30A G33C A39G A41U: the self-cleavage was 0.01.

Turning to A11G C13G A14U G22U U28C, the self-cleavage came to 0.01.

For A11G G19A G22A, the self-cleavage came to 0.03.

In the case of A12C A25C U32G U43A, the self-cleavage turned out to be 0.01.

For the variant A11G A16U G29A G44C, the self-cleavage turned out to be 0.01.

Take A11U A12G C13G: the self-cleavage was 0.

Consider A11U G30A U32C G36U G44U, for which the self-cleavage amounted to 0.02.

For the variant A11C A16U G30U, the self-cleavage is 0.01.

Take A11G U28C G33A: the self-cleavage came out at 0.02.

For the variant A11C A25C A41G, the self-cleavage was found to be 0.

Regarding A11U U32C G44U C46U, the self-cleavage turned out to be 0.

For the variant A11C C42G C45U, the self-cleavage stood at 0.01.

Consider C10U U38A A39C, for which the self-cleavage was 0.08.

A11U G17U G44U C45U C46G: the self-cleavage came out at 0.

Take A11G C31G C46U: the self-cleavage was 0.

As to A12C A14C A26C C31A U32A, the self-cleavage amounted to 0.01.

Take A11U A25G C31G U34A G36A A41U: the self-cleavage was 0.01.

For the variant C10U U28C U38A G40U, the self-cleavage was 0.06.

For the variant A11G U20G U38A, the self-cleavage turned out to be 0.01.

A11G G17U A24C G33C: the self-cleavage is 0.01.

As to A11U C15U G33A C37U, the self-cleavage came to 0.01.

Regarding A11C A12C U38G, the self-cleavage turned out to be 0.

For the variant A11U G17C U34G, the self-cleavage was 0.01.

Take C10U U32C G36C: the self-cleavage amounted to 0.01.

As to A11C A14U C31U, the self-cleavage was 0.01.
